The list shows a part of the results. Each Rep nickase domain was tested in vitro on the same pool of single strands at 3 µM enzyme and 37 °C for 1 h; the strands have 90 letters, of which the middle is given. Values are log2 of uncut reads against the no-enzyme pool; uncut sequences lie near 0, cut ones below; no hit call is given. Because reads are shares of a total, they shift together; where an enzyme cuts many sequences, the uncut ones exceed 0.
Columns and labels:
Experiment in all cases: uncleaved DNA left, log2 of reads against the no-enzyme library (log2 ratio); higher = less cleavage (more negative = more Rep cleavage of the k-mer); sequences stand for … in CTCGTCCG…ACCGGAGA
[1] = test system: T1, Rep nickase domain of Muscovy duck circovirus
T1 sequence (residues 1-111, tag not shown): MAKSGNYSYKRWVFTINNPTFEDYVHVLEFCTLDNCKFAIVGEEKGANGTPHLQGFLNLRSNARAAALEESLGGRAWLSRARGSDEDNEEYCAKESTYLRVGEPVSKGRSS
Experimental: (§1)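 A pool of 90-nt single-stranded DNAs with seven random bases just before the constant AC of the nick site (name = the seven bases) was cut by 3 µM recombinant His6-SUMO-tagged Rep nickase domain (300 nM DNA, 50 mM HEPES pH 8.0, 50 mM NaCl, 1 mM MnCl2, 1 h, 37 °C, three replicates). Uncut DNA was amplified and sequenced.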

[2] = test system: T2, Rep nickase domain of banana bunchy top virus
T2 sequence (residues 1-94, tag not shown): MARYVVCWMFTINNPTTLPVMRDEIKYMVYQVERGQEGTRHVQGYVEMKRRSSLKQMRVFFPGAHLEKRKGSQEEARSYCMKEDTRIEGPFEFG
Experimental: as §1

[3] = test system: T3, Rep nickase domain of cabbage leaf curl virus
T3 sequence (residues 1-116, tag not shown): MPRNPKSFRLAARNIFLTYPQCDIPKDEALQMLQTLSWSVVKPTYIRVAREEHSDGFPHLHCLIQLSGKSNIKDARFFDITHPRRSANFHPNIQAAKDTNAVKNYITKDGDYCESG
Experimental: as §1

[4] = test system: T4, Rep nickase domain of chickpea chlorotic dwarf virus
T4 sequence (residues 1-124, tag not shown): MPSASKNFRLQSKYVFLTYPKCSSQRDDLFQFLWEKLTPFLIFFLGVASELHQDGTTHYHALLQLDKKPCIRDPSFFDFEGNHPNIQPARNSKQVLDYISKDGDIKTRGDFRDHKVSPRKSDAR
Experimental: as §1

[5] = test system: T5, Rep nickase domain of faba bean necrotic yellows virus
T5 sequence (residues 1-98, tag not shown): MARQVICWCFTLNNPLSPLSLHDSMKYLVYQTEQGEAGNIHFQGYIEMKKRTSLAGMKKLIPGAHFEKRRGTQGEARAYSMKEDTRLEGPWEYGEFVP
Experimental: as §1

[6] = test system: T6, Rep nickase domain of maize striate mosaic virus
T6 sequence (residues 1-117, tag not shown): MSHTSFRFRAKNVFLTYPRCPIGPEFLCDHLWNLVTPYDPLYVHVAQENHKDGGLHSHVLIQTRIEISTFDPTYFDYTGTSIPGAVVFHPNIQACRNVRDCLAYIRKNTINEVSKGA
Experimental: as §1

[7] = test system: T7, Rep nickase domain of porcine circovirus 2
T7 sequence (residues 2-116, tag not shown): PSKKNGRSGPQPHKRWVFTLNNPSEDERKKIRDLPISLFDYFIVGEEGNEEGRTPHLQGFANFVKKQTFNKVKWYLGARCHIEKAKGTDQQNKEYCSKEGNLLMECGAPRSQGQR
Experimental: as §1

[8] = test system: T8, Rep nickase domain of tomato golden mosaic virus
T8 sequence (residues 1-124, tag not shown): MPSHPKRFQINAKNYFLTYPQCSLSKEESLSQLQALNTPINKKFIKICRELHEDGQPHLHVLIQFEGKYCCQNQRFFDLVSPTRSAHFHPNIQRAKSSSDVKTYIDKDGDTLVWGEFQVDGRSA
Experimental: as §1

[9] = test system: T9, Rep nickase domain of tomato yellow leaf curl virus
T9 sequence (residues 1-136, tag not shown): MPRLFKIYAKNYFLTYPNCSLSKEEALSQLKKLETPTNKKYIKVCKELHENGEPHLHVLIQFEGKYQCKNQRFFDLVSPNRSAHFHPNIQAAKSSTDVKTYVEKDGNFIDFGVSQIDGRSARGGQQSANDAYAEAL
Experimental: as §1

[10] = test system: T10, Rep nickase domain of wheat dwarf virus
T10 sequence (residues 1-137, tag not shown): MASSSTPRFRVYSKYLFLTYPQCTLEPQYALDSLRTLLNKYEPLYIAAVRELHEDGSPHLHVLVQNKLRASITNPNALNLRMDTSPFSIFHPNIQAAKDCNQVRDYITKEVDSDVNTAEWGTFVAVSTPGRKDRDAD
Experimental: as §1

Sequence	uncleaved DNA left (log2) [1]	uncleaved DNA left (log2) [2]	uncleaved DNA left (log2) [3]	uncleaved DNA left (log2) [4]	uncleaved DNA left (log2) [5]	uncleaved DNA left (log2) [6]	uncleaved DNA left (log2) [7]	uncleaved DNA left (log2) [8]	uncleaved DNA left (log2) [9]	uncleaved DNA left (log2) [10]
TGGTTGA	0.195	-0.0193	0.277	0.34	0.133	-0.0687	0.00985	0.023	0.05	0.0819
ATGTGTA	-0.126	-0.0979	-0.241	-0.848	0.0029	-0.476	-0.928	-0.00842	-0.0665	-0.0249
CTACCTG	-0.0753	-0.0381	-0.213	-1.17	-0.0687	0.0399	-0.263	-0.169	-0.0997	-0.0254
CAGCGCG	-0.113	-0.096	-0.894	-0.228	-0.133	-1.02	-0.00324	-0.105	-0.0742	-0.187
CTTAAGT	0.0891	0.092	-0.0934	-0.535	0.0421	-1.02	-0.0555	-0.0154	0.111	-0.103
GAGATAC	0.0129	-0.00462	0.229	0.7	-0.0641	0.37	-0.0272	0.0751	-0.0303	0.127
CCGAATC	-0.0359	0.0974	0.0904	0.077	0.0168	-0.396	-0.0599	-0.107	0.0393	0.018
GCATAGT	-2.13	-0.0936	-0.336	-1.02	-0.0624	-0.79	-2.53	-0.0776	0.0147	-0.234
TATGTTT	-0.246	-1.36	-2.5	-2.73	0.057	-0.0627	-1.47	-0.213	0.0382	-0.36
GAATGGA	-0.026	0.0458	0.11	0.278	0.00504	0.101	-0.203	-0.0355	-0.0657	-0.00732
AAGAGTT	0.132	-0.0505	0.196	0.471	-0.0492	1.45	-3.08	0.152	-0.0696	0.128
AGCAAGA	0.0682	0.0958	0.0964	0.41	-0.0463	-0.138	-0.0416	0.0641	-0.0166	0.0833
ATAGATT	0.00296	-0.0357	-0.0459	-1.89	-0.0287	0.172	-0.146	-0.0993	-0.0023	-0.00745
AACGGCT	-0.108	0.0521	-0.0164	0.265	-0.107	0.64	0.0992	0.0442	-0.077	-0.0347
CCAGCCC	-0.102	0.00842	0.0415	-0.323	0.14	-0.37	-0.0285	0.00288	0.0366	-0.0435

Source: the supplement of paper PMC7826260
